Where “and” joins values, the source holds several entries; their conditions need not be identical. Equal entries are not always repeated. Among all 340,000 compounds or so, about 6,900 (2%) were called active. Rule as the data show it: active = inhibition above about 30%; inactive = below that, where a call was filed. The list shows a part of the results, in another mix than the full data. Entries without a call were filed so in the source.
Molecular target: D(2) dopamine receptor (Homo sapiens) (UniProt P14416)
Test: HTS Assay for Allosteric Antagonists of the Human D2 Dopamine Receptor: Primary Screen for Antagonists; also: 0% is about no effect
Conditions: HEK293 TREx D2 cells, calcium flux, dopamine EC80; at 10 µM; stronger effect = higher value
Summary of the method: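 Tetracycline-induced HEK293 T-REx cells expressing D2 force-coupled to calcium signalling were dye-loaded, exposed to compound for 180 s, then challenged with an EC80 of dopamine; calcium flux was followed kinetically for a further 180 s.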

UniProt P14416, sequence (P14416 whole entry, looked up): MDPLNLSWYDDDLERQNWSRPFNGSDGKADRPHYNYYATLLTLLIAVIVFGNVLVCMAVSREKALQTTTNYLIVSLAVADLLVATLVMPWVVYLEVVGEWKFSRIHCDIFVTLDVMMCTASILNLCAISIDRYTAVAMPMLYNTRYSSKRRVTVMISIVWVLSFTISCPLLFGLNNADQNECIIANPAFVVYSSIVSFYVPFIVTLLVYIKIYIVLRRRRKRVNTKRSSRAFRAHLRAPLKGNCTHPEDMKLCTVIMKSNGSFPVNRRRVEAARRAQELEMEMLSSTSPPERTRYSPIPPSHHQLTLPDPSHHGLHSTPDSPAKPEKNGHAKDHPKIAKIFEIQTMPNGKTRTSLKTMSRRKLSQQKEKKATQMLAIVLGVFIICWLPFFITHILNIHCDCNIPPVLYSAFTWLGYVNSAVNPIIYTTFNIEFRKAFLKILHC

Row | Structure (SMILES) | inhibition
1 | c1ccc(-c2ncc(CN3CCN(c4ccccn4)CC3)[nH]2)cc1 | active: 88.7%
2 | Cc1ccc(-n2c(C)cc(C(=O)C(=O)Nc3ccccc3)c2C)c(C)c1 | 10.5%
3 | CC(CCc1ccccc1)NCC#N (stereo not given) | active: 33.6%
4 | CC(=O)Nc1nc2n(n1)C(c1ccc(F)cc1)C=C(c1ccc(Cl)cc1)N2 (stereo not given) | 4.82%
5 | CC(C(=O)NCCSCc1cccc(Cl)c1)N(c1ccccc1)S(C)(=O)=O (stereo not given) | 0.622%
6 | COc1ccc(CCNC(=O)CCn2c(=O)c3ccccc3n(Cc3ccccc3F)c2=O)cc1OC | -21.7%
7 | Cc1cccc(C(=O)OCC(=O)N2CCCCCC2)c1 | active: 30.7%
8 | Cc1cccc(C(=O)OCc2cc(=O)n3ccsc3n2)c1 | -10.6%
9 | COc1ccc(Cn2ccc3nc(C)c(C(=O)Nc4ccc(OC)cc4)cc3c2=O)cc1 | 2.8%
10 | COc1ccc(CNC(=O)C2CCN(S(=O)(=O)c3c(C)noc3/C=C/c3ccccc3F)CC2)cc1 | -0.531%
11 | COC(=O)Nc1ncc(CN2CCC(c3ccccc3)CC2)s1 | active: 98.1%
12 | Cc1cc(C)c(NC(=O)Cn2c(=O)c3cccn3c3ccccc32)c(C)c1 | 7.83%
13 | COc1cccc(-n2ccnc2SCC(=O)Nc2c(C)cc(C)cc2C)c1 | 8.87%
14 | CCSc1ncc(Cl)c(C(=O)N2CCN(c3ccccc3OC)CC2)n1 | 13.5%
15 | Cc1cccc(OCC(=O)Nc2cccc(OCc3cc(=O)n4cccc(C)c4n3)c2)c1 | 5.83%
16 | O=C(/C=C/c1ccccc1)Nc1cc(-c2nc3cc(Cl)ccc3o2)ccc1Cl | -6.42%
17 | Cc1cc2nc(-c3cccc(NC(=O)c4cccc5ccccc45)c3)oc2cc1C | 3.35%
18 | CCOc1ccc(N2CC(NC(=O)c3ccco3)CC2=O)cc1 (stereo not given) | 16.1%
19 | CC1CCCN(C(=O)c2cc3ccc4cccnc4c3[nH]2)C1 (stereo not given) | 1.59%
20 | CCc1nc2ccc(C(=O)NCCc3ccccc3OC)cc2nc1CC | 13.7%
21 | CCCCN1CC(c2nc3ccccc3n2CCCCOc2cc(C)ccc2C)CC1=O (stereo not given) | 0.694%
22 | O=C(CS(=O)(=O)c1cccc2nsnc12)Nc1ccccc1Cl | 13.9%
23 | CC1CCN(CCc2nc3cc(NS(=O)(=O)c4ccc(F)cc4)ccc3n2C)CC1 | active: 35.6%
24 | COc1ccc(N(Cc2cc3ccccc3[nH]c2=O)C(=O)c2cccc(Cl)c2)cc1 | 1.93%

Row | Structure (SMILES) | inhibition
25 | CCOC(=O)Cc1ccc(NC(=O)NCc2c(-n3cccc3)sc3c2CCCC3)cc1 | 10.9%
26 | Cc1ccc(NC(=O)c2c(C)cc(C)nc2SCC(=O)Nc2ccc(Br)cc2)cc1 | -3.06%
27 | COc1ccc(/C=C/C(=O)Nc2cc(C(F)(F)F)ccc2Cl)cc1 | active: 32%
28 | COc1cc(C(=O)NCC(c2ccc3c(c2)OCO3)N2CCOCC2)cc(OC)c1OC (stereo not given) | -3.78%
29 | CCCC(O)c1nc2ccccc2n1CCCOc1ccc(Cl)cc1 (stereo not given) | -7.62%
30 | CCc1cccc(NC(=O)C2CCCN(c3ncnc4onc(-c5ccc(F)cc5)c34)C2)c1 (stereo not given) | 10.7%
31 | CCN1CCSc2ccc(C(=O)NCc3ccc(OC(C)C)cc3)cc21 | 18.1% and active: 59.7%
32 | COc1ccc(-c2noc(CSCC(=O)Nc3cc(OC)c(OC)c(OC)c3)n2)cc1OC | 0.154%
33 | CCOc1ccc(-c2cc3c(=O)n(CC(=O)NCc4ccc(C)cc4)ccn3n2)cc1 | 5.14%
34 | CCc1ccc(C2CC(c3ccccc3)n3ncnc3N2)cc1 (stereo not given) | active: 42.1%
35 | O=C(c1ccc(N2CCC3(CC2)OCCO3)c([N+](=O)[O-])c1)N1CCOCC1 | active: 31.2%
36 | CN(C(=O)CCc1nc(-c2ccccc2F)no1)c1ccc(Cl)cc1 | 19.6%
37 | O=S(=O)(c1ccc(OC(F)(F)F)cc1)N1CCC(c2nnnn2-c2ccc(F)cc2)CC1 | 1.91%
38 | COc1cccc(NS(=O)(=O)c2ccc3c(c2)n(C)c(=O)n3C)c1 | 14.6%
39 | COc1ccc(NC(=O)COCc2cc(-c3ccc4c(c3)OCO4)on2)cc1 | -1.65%
40 | CN(C(=O)c1ccc2c(c1)N(Cc1cccc(Cl)c1)C(=O)c1ccccc1S2(=O)=O)C1CCCCC1 | 0.0671%
41 | COCCNC(=O)c1cnc2sc(N3CCCCC3)nn2c1=O | 0.144%
42 | Cc1ccc(Cn2c(SCc3ccc(C(=O)NC4CCCCC4)cc3)nc3ccncc32)cc1 | -7.47%
43 | CSc1cccc(NC(=O)C2CCN(c3nc4ccccc4[nH]3)CC2)c1 | -7.87%
44 | COc1ccc(Cl)c2sc(NC(=O)c3ccc(S(=O)(=O)N4CCOCC4)cc3)nc12 | -13.4%
45 | CCc1ccc(NC(=O)Cn2c(=O)n(-c3ccc(Cl)c(Cl)c3)c(=O)c3c(C)c(C)sc32)cc1 | -3.52%
46 | CC1CC(C)CN(CCCNC(=O)c2ccc3c(c2)NC(=O)CS3)C1 (stereo not given) | active: 47.7%
47 | Cc1c(-c2nc(-c3ccccc3)no2)nnn1-c1ccc(F)c(Cl)c1 | 0.165%
48 | Cc1ccc(CN2CCC(CNC(=O)c3cnn(-c4ccccc4Cl)c3C3CCN(C(=O)OC(C)(C)C)CC3)CC2)cc1 | -13.3%

Row | Structure (SMILES) | inhibition
49 | COc1ccc(NC(=O)N(C2CCCCC2)C2CCN(C(C)C)CC2)c(OC)c1 | active: 49.9%
50 | COc1cc(/C=C/c2nc(C#N)c(N3CCN(C)CC3)o2)cc(OC)c1OC | -4.62%
51 | Cc1c(C(=O)N(Cc2ccccc2F)C2CCS(=O)(=O)C2)oc2ccccc12 (stereo not given) | 6.03%
52 | CCOc1ccc(C(=O)c2cn(CC(=O)Nc3ccc(Cl)cc3)c3cc4c(cc3c2=O)OCO4)cc1 | 21.4%
53 | COc1ccc(S(=O)(=O)NCC(c2cccs2)S(=O)(=O)c2ccccc2)cc1OC (stereo not given) | -19.9%
54 | COc1ccc(-c2nnc(SCC(=O)Nc3cccc(C(F)(F)F)c3)s2)cc1 | 16.5%
55 | CC(=O)N1CCc2cc(Br)cc(S(=O)(=O)CCC(=O)N3CCN(c4ccc(F)cc4)CC3)c21 | 10.1%
56 | COc1ccc(NC(=O)c2c(NCc3cccs3)sc3c2CCC(C)C3)c(OC)c1 (stereo not given) | -1.33%
57 | CCOC(=O)N1CCC(NC(=O)CCCN2C(=O)CSc3ncccc32)CC1 | active: 31.7%
58 | CCCCN(C)C(=O)c1cccc(OC2CCN(CC(C)(C)C)CC2)c1 | active: 66.8%
59 | O=C(CSc1nnc(-c2ccccc2Cl)o1)N1CCCc2ccccc21 | -8.64%
60 | Cc1oc(-c2ccc(Cl)cc2)nc1CN1CCCC(C(=O)NCCc2ccc(Cl)cc2)C1 (stereo not given) | -1.02%
61 | COCCCNC(=O)C1CCN(Cc2cc3ccccc3n2Cc2ccccc2C)CC1 | 7.54%
62 | CC1CCC(NC(=O)c2ccc(-n3cncn3)c([N+](=O)[O-])c2)CC1 (stereo not given) | active: 35.6%
63 | Cc1ccc(S(=O)(=O)c2c(O)cc(C)c(NS(=O)(=O)c3ccc(Br)cc3)c2C)cc1 | 2.81%
64 | COc1ccc(C)cc1NC(=O)c1ccc(NS(=O)(=O)c2c(C)noc2C)cc1 | 18.7%
65 | CCC(C(=O)Nc1cccc(Cl)c1C)n1nc(C)c2sc3ccccc3c2c1=O (stereo not given) | -0.525%
66 | COc1ccc(-c2noc(CN(C)S(=O)(=O)c3c(C)cc(C)cc3C)n2)cc1OC | -8.7%
67 | CC(=O)N1c2ccccc2C(=O)C1N1CCN(c2ccccc2F)CC1 (stereo not given) | 2.55%
68 | CCOC(=O)c1cnc2cc(C(F)(F)F)ccc2c1Nc1cc(C)ccc1OC | 3.98%
69 | CCOC(=O)c1ccc(NC2=CC(c3ccc(OCC)cc3)N(c3ccc(C(=O)OCC)cc3)C2=O)cc1 (stereo not given) | 28.1%
70 | CCc1cc(C(=O)OC)c(NC(=O)CC2SC(N)=NC2=O)s1 (stereo not given) | active: 31%
71 | Cc1ccc(-c2nc(CCNC(=O)c3ccc(C)c(C)c3)cs2)cc1 | 23.6%
72 | CC(C)(C)OC(=O)N1CCC(c2c(C(=O)NCc3ccccc3)cnn2-c2cccc(F)c2)CC1 | 11.2%

Row | Structure (SMILES) | inhibition
73 | COc1ccccc1NC(=O)Cn1c(O)c(N=NC(=O)c2ccccc2O)c2ccccc21 | active: 55.1%
74 | COc1ccccc1-c1nc2n(n1)C(c1ccccc1Cl)C(C(=O)Nc1cccnc1)=C(C)N2 (stereo not given) | 26.9%
75 | CCOc1ccccc1NC(=O)CSc1nnc2[nH]c(=O)cc(C)n12 | -21.9%
76 | Cc1cc(O)c(C(c2ccccc2)N2CCCCC2)c(=O)n1Cc1ccco1 (stereo not given) | 11.7%
77 | CCCCn1cc(S(=O)(=O)c2ccc(C)cc2)c(=O)c2cc(F)c(N3CCCCC3)cc21 | -8.06%
78 | O=C(COC(=O)/C=C/c1cccc(F)c1)NNC(=O)c1ccccc1 | active: 45.4%
79 | COc1ccc(CCNC(=O)CCc2c(C)c3cc4c(C)c(C)oc4cc3oc2=O)cc1OC | -4.28%
80 | O=C(COC(=O)/C=C/c1ccccc1)Nc1ccccc1Br | active: 40.1%
81 | O=C(Cn1ncn2c(cc3sccc32)c1=O)NCCc1ccccc1 | -5.36%
82 | O=C(CSc1nc2ccccc2nc1Cc1ccc(Cl)cc1)Nc1ccc2c(c1)OCO2 | 4.49%
83 | Cc1ccc2c(=O)cc(C(=O)Nc3ccc(S(=O)(=O)N(C)c4ccccc4)cc3)oc2c1C | 7.75%
84 | Cc1ccc(-c2nc3c(c(SCc4ccc(Br)cc4)n2)Cc2c(CO)cnc(C)c2O3)cc1 | 0.448%
85 | C=CC[C@@H]1C=C[C@H](O/N=C/[C@@H](NS(=O)(=O)c2ccc(C)cc2)[C@H](C)/C=C/CC(=O)OC)[C@@H](CO)O1 | active: 31%
86 | COc1ccc(Nc2nc(C(=O)N3CCc4ccccc4C3)cs2)cc1 | active: 81.5%
87 | O=C(CSc1nc2c([nH]c3ccccc32)c(=O)n1-c1ccc(Cl)cc1)N1CCc2ccccc21 | -20.2%
88 | CSc1cccc(NC(=O)c2cnn(-c3ccc(F)cc3)c2-n2cccc2)c1 | 7.48%
89 | Cc1cccc(-c2nc(CN3CCCC(C(=O)N4CCN(c5cc(Cl)ccc5C)CC4)C3)c(C)o2)c1 (stereo not given) | 3.19%
90 | COc1ccccc1N1CCN(CCCOc2ccc(F)cc2)CC1 | active: 89.3%
91 | Cc1cc(/C=C2\NC(=S)N(C)C2=O)ccc1N1CCCC1 | active: 41.7%
92 | Cc1ccc(CSc2nc3cccnc3n2Cc2ccc(C(=O)NCc3ccco3)cc2)cc1 | 1.4%
93 | Oc1ccc(Cl)cc1C1=Nc2ccccc2N=C(c2ccccc2)C1 | -8.89%
94 | COc1ccc(OC)c(NC(=O)c2ccc(CN3CCc4ccccc4C3)cc2)c1 | active: 40.9%
95 | CC(C)(C)C(=O)Nc1ccc(-c2nc3ccc(NC(=O)C(C)(C)C)cc3[nH]2)cc1 | 3.47%

Source: PubChem BioAssay AID485344 (National Center for Advancing Translational Sciences (NCATS), 2010)
